Measurements taken from the supplement of paper PMC4967469.

What was measured:
Assay in all cases: Viability of human cancer cell lines after 72 h of drug (GDSC screen)
[1] = compound: CCC(=O)N1CCN(c2ccc(-n3c(=O)ccc4cnc5ccc(-c6cnc7ccccc7c6)cc5c43)cc2C(F)(F)F)CC1 [JW-7-52-1]; conditions: top dose 1.2 µM; top dose inferred
Method: (§1)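 Human cancer cell lines in 384-well plates, medium with 10% serum, drug for 72 h over a 256-fold dose range (nine 2-fold or five 4-fold steps up to the top dose). Adherent lines were fixed and stained with the nucleic acid dye Syto60, suspension lines read with resazurin; signal relative to control wells, capped at 0 and 100%. One two-parameter sigmoid per drug and line, fitted in a mixed model over all curves with the slope shared within a line.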

[2] = compound: CCCC[C@@H](C=O)NC(=O)[C@H](CC(C)C)NC(=O)[C@H](CC(C)C)NC(=O)OCc1ccccc1 [Z-LLNle-CHO]; conditions: top dose 2.56 µM; top dose inferred
Method: as §1

[3] = compound: CN1CCc2c(c3ccccc3n2Cc2ccc(C(=O)NO)cc2)C1 [Tubastatin A]; conditions: top dose 20 µM
Method: as §1

[4] = compound: CO[C@H]1C[C@@H]2CC[C@@H](C)[C@@](O)(O2)C(=O)C(=O)N2CCCC[C@H]2C(=O)O[C@H]([C@H](C)C[C@@H]2CC[C@@H](O)[C@H](OC)C2)CC(=O)[C@H](C)/C=C(\C)[C@@H](O)[C@@H](OC)C(=O)[C@H](C)C[C@H](C)/C=C/C=C/C=C/1C [Rapamycin]; conditions: top dose 0.1 µM; top dose inferred
Method: as §1

[5] = compound: COc1cc2c(Oc3ccc(NC(=O)C4(C(=O)Nc5ccc(F)cc5)CC4)cc3F)ccnc2cc1OCCCN1CCOCC1 [XL-880]; conditions: top dose 5.12 µM; top dose inferred
Method: as §1

[6] = compound: Cn1nnc2c(C(N)=O)ncn2c1=O [Temozolomide]; conditions: top dose 30 µM
Method: as §1

[7] = compound: O=C(NOCC1CC1)c1ccc(F)c(F)c1Nc1ccc(I)cc1Cl [CI-1040]; conditions: top dose 10 µM; top dose inferred
Method: as §1

[8] = compound: Oc1ccc2ccccc2c1SSc1c(O)ccc2ccccc12 [IPA-3]; conditions: top dose 32 µM; top dose inferred
Method: as §1

Row | Cell Line | AUC [1] | IC50 [1] | AUC [2] | IC50 [2] | AUC [3] | IC50 [3] | AUC [4] | IC50 [4] | AUC [5] | IC50 [5] | AUC [6] | IC50 [6] | AUC [7] | IC50 [7] | AUC [8] | IC50 [8]
1 | COLO-320-HSR (large intestine, suspension) | 0.591 | 128 nM | 0.934 | > 2560 nM | 0.954 | > 20 µM | 0.914 | > 100 nM | 0.656 | 813 nM | 0.976 | > 30 µM | 0.987 | > 10 µM | 0.802 | 13.4 µM
2 | CPC-N (small cell lung carcinoma, suspension) | 0.825 | 808 nM | 0.919 | > 2560 nM | 0.855 | 18.3 µM | 0.943 | > 100 nM | 0.616 | 691 nM | 0.976 | > 30 µM | 0.985 | > 10 µM | 0.985 | > 32 µM
3 | JM1 (B-cell lymphoma, suspension) | 0.708 | 262 nM | 0.749 | 731 nM | 0.79 | 7.58 µM | 0.915 | > 100 nM | 0.613 | 622 nM | 0.982 | > 30 µM | 0.962 | > 10 µM | 0.563 | 2.89 µM
4 | JSC-1 (B-cell lymphoma, suspension) | 0.477 | 64.9 nM | 0.744 | 793 nM | 0.753 | 6.6 µM | 0.737 | 29.4 nM | 0.601 | 605 nM | 0.905 | > 30 µM | 0.806 | 5.03 µM | 0.644 | 4.99 µM
5 | JiyoyeP-2003 (Burkitt lymphoma, suspension) | 0.571 | 115 nM | 0.768 | 849 nM | 0.857 | 13.2 µM | 0.516 | 6.88 nM | 0.753 | 1530 nM | 0.97 | > 30 µM | 0.93 | > 10 µM | 0.722 | 7.76 µM
6 | MZ2-MEL (melanoma, adherent) | 0.354 | 27.4 nM | 0.749 | 956 nM | 0.977 | > 20 µM | 0.822 | 72.1 nM | 0.703 | 1330 nM | 0.972 | > 30 µM | 0.546 | 0.851 µM | 0.907 | > 32 µM
7 | Calu-6 (lung adenocarcinoma, adherent) | 0.633 | 185 nM | 0.915 | > 2560 nM | 0.97 | > 20 µM | 0.984 | > 100 nM | 0.796 | 2810 nM | 0.974 | > 30 µM | 0.779 | 4.73 µM | 0.956 | > 32 µM
8 | DB (B-cell lymphoma, suspension) | 0.711 | 322 nM | 0.782 | 1220 nM | 0.829 | 14.7 µM | 0.811 | 61.6 nM | 0.685 | 1130 nM | 0.901 | > 30 µM | 0.979 | > 10 µM | 0.753 | 11.9 µM
9 | ROS-50 (B-cell leukaemia, suspension) | 0.682 | 282 nM | 0.898 | > 2560 nM | 0.942 | > 20 µM | 0.822 | 80.9 nM | 0.736 | 1850 nM | 0.972 | > 30 µM | 0.971 | > 10 µM | 0.887 | > 32 µM
10 | SU-DHL-16 (B-cell lymphoma, suspension) | 0.485 | 69.1 nM | 0.746 | 636 nM | 0.914 | 14.6 µM | 0.348 | 2.68 nM | 0.331 | 125 nM | 0.99 | > 30 µM | 0.971 | > 10 µM | 0.749 | 8.07 µM
11 | LU-139 (small cell lung carcinoma, suspension) | 0.595 | 147 nM | 0.907 | > 2560 nM | 0.879 | > 20 µM | 0.795 | 61.6 nM | 0.785 | 2870 nM | 0.955 | > 30 µM | 0.87 | > 10 µM | 0.848 | > 32 µM
12 | GOTO (neuroblastoma, adherent) | 0.632 | 184 nM | 0.959 | > 2560 nM | 0.58 | 2.13 µM | 0.931 | > 100 nM | 0.626 | 751 nM | 0.977 | > 30 µM | 0.941 | > 10 µM | 0.921 | > 32 µM
13 | HCC1187 (breast, suspension) | 0.769 | 431 nM | 0.756 | 836 nM | 0.977 | > 20 µM | 0.86 | 77.5 nM | 0.645 | 789 nM | 0.96 | > 30 µM | 0.937 | > 10 µM | 0.922 | > 32 µM
14 | Ramos-2G6-4C10 (Burkitt lymphoma, suspension) | 0.326 | 26.6 nM | 0.701 | 533 nM | 0.878 | 15.3 µM | 0.307 | 1.97 nM | 0.435 | 219 nM | 0.985 | > 30 µM | 0.889 | 8.5 µM | 0.767 | 10.2 µM
15 | KARPAS-422 (B-cell lymphoma, suspension) | 0.562 | 110 nM | 0.754 | 849 nM | 0.947 | > 20 µM | 0.718 | 25.6 nM | 0.713 | 1270 nM | 0.971 | > 30 µM | 0.96 | > 10 µM | 0.682 | 6.38 µM

A lower IC50 marks a more sensitive line; where the fit passes the top or lowest dose, that dose stands as a limit. AUC is the area under the same curve over the 256-fold range up to the top dose, as a fraction; it is 1 without any effect and falls as sensitivity rises. For part of these data: Where the top dose is marked as inferred, it was calculated from the reported fits.
